Among all 400,000 compounds or so, about 2,200 (0.55%) were called active. Not shown: some 1% with an inconclusive outcome. Calls follow the shape of the dose curve; as a rule, active = well fitted inhibition curve with a large enough effect; inconclusive = small, poorly fitted or top-dose-only effect, or another doubt; inactive = no such curve, though single readings can be large or run the other way. The entries are a selection whose mix differs from that of the whole data set.
% is scaled to controls: 0 for no effect and ±100 for the full control effect; potency is read from the fitted curve at half-maximal effect.

Sequence of UniProt Q9UBT6 (Q9UBT6 whole entry, looked up): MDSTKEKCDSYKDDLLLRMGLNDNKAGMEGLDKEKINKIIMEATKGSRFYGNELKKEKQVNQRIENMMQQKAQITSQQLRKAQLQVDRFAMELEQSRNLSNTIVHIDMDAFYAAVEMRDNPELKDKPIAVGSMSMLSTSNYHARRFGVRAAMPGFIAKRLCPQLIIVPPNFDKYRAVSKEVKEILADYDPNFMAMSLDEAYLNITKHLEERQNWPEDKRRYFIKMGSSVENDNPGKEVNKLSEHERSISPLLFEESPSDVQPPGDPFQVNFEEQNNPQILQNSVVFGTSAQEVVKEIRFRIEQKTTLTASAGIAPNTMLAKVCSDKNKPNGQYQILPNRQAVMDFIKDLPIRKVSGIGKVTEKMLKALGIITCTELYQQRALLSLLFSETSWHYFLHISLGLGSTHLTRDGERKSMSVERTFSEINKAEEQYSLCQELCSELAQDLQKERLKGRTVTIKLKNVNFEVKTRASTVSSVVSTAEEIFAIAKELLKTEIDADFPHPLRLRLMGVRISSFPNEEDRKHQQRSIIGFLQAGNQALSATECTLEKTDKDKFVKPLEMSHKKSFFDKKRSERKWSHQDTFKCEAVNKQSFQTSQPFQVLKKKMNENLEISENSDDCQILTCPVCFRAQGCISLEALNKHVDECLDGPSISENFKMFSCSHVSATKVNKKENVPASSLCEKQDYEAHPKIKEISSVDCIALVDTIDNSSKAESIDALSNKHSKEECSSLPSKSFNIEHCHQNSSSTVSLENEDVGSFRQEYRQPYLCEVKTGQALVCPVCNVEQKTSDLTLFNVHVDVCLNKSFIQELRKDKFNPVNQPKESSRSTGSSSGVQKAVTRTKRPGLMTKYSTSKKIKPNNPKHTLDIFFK

For the test, the target named is DNA polymerase kappa (Homo sapiens) (UniProt Q9UBT6). In words: qHTS for Inhibitors of Polymerase Kappa. To be noted: purified Pol kappa, fluorescent DNA synthesis assay, 10 min; series mostly up to 60.1 µM; activity, negative = inhibition: at the top concentration. A digest of the protocol:
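Pol kappa 10 nM + cpd, 15 min RT; start w/ substrate 50 nM final; fluorescence kinetic read, 0 and 10 min. Neg ctrl: buffer, no enzyme.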
With `CCC1C(C)=NN=C(c2ccc(OC)c(OC)c2)c2cc(OC)c(OC)cc21` (stereo not given), the Potency entry was “inactive”. Consider `Nc1nc(N)c2nc(CNc3ccc(C(=O)NC(CCC(=O)O)C(=O)O)cc3)cnc2n1` (stereo not given), for which the “activity, negative = inhibition” value was inactive: -2.61%. On the same count and under the same terms, the figure for `CNC(C)Cc1ccc(OC)cc1` (stereo not given) is inactive: 17.5%. In the case of `N#Cc1c(/N=C/c2c(O)n(Cc3ccco3)c(=O)[nH]c2=O)sc2c1CCCC2`, the Potency was active: 22.4 µM. As for `CCN(CC)C(=O)N[C@@H]1C[C@@H]2c3cccc4[nH]cc(c34)C[C@H]2N(C)C1`, the “activity, negative = inhibition” value is inactive: -4.45% [at 19.4 µM]. Consider `c1cc(Cc2cnc[nH]2)ccn1`, for which the “activity, negative = inhibition” value was inactive: 15.4%. The same measure, in the same setting: the figure for `CCOC(=O)C1=C(C)c2ccccc2OC1(C(=O)OCC)c1ccccc1` (stereo not given) is inactive: -14.6% [at 107 µM]. As for `CC(=O)N1CCN(c2ccc(OC[C@H]3CO[C@](Cn4ccnc4)(c4ccc(Cl)cc4Cl)O3)cc2)CC1`, the Potency entry was “inactive”. Same read-out and setting: then `C=CCN(C1=NCCN1)c1c(Cl)cccc1Cl`, with “inactive”.

`CC(C)C[C@H]1C(=O)N2CCC[C@@H]2[C@@]2(O)O[C@](NC(=O)[C@@H]3C=C4c5cccc6[nH]cc(c56)C[C@@H]4N(C)C3)(C(C)C)C(=O)N12`: the activity, negative = inhibition is inactive: -18.3% [at 12 µM]. For `C[C@H](CCC(=O)O)[C@H]1CC[C@H]2[C@H]3C(CC[C@]12C)[C@@]1(C)CC[C@@H](O)C[C@H]1C[C@H]3O` (stereo not given in full), the Potency entry is “inactive”.

As for `NNc1ccccc1`, the Potency entry was “inactive”.

With `O=C(O)c1cc(Oc2ccc(C(F)(F)F)cc2Cl)ccc1[N+](=O)[O-]`, the “activity, negative = inhibition” value was inactive: 9.31% [at 107 µM]. Take `CC(CO)NC(=O)C1C=C2c3cccc4[nH]cc(c34)C[C@H]2N(C)C1` (stereo not given in full): the “activity, negative = inhibition” value was inactive: -1.37%. On the same count and under the same terms, the figure for `CC(=O)N1CCN(c2ccc(OCC3CO[C@@](Cn4ccnc4)(c4ccc(Cl)cc4Cl)O3)cc2)CC1` (stereo not given in full) is inactive: -4.06%; for `O=c1ccc2c(O)c3ccoc3cc2o1` it is inactive: -0.475% [at 107 µM]; for `CC(C)C[C@H](NC(=O)[C@@H](N)Cc1ccccc1)C(=O)N[C@@H](Cc1ccccc1)C(=O)N[C@@H](CCC(N)=O)C(=O)N1CCC[C@H]1C(=O)N[C@@H](CCC(N)=O)C(=O)N[C@@H](CCCN=C(N)N)C(=O)N[C@@H](Cc1ccccc1)C(N)=O` it is inactive: 15.7%. For the molecule `C[C@H](CCC(=O)O)[C@H]1CC[C@@H]2[C@H]3[C@@H](CC[C@@]21C)[C@]1(C)CC[C@H](O)C[C@@H]1C[C@@H]3O`, the activity, negative = inhibition is inactive: -5.62% [at 12 µM].

In the case of `CC[C@H](C)[C@H](NC(=O)[C@H](CCCN=C(N)N)NC(=O)[C@H](CCCN=C(N)N)NC(=O)[C@H](CC(C)C)NC(=O)[C@H](Cc1ccccc1)NC(=O)CNC(=O)CNC(=O)[C@@H](N)Cc1ccc(O)cc1)C(=O)N[C@@H](CCCN=C(N)N)C(=O)N1CCC[C@H]1C(=O)N[C@@H](CCCCN)C(=O)N[C@@H](CC(C)C)C(=O)N[C@@H](CCCCN)C(=O)O`, the Potency result is “inactive”. Turning to `C/C=C1\C[C@H](C)[C@@](O)(CO)C(=O)OCC2=CCN3CC[C@@H](OC1=O)[C@@H]23`, the activity, negative = inhibition was inactive: 1.66% [at 12 µM].

The values are drawn from PubChem BioAssay AID588579 (National Center for Advancing Translational Sciences (NCATS), 2011).
